According to the supplement of paper PMC12355420:
Counter-ions that a name gives are not always drawn. The list shows a part of the results. Cut-off read from the data, not from the text of the source: active = 0.5 or less and inactive = the rest. Repeats are few or missing, and single values can be far off.

Tests used:
Details in all cases: 50 µM; 24 h
[1] = system: HeLa VPS33A reporter cells; assay: relative cell viability (CellMask signal) vs DMSO (fraction of DMSO); higher = less cytotoxic;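 note: primary screen of an FDA-approved drug library in HeLa reporter cells in 96-well format, CellMask signal normalized to DMSO-treated wells set as 1, under 0.5 deemed highly cytotoxic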
[2] = system: HeLa VPS33A R498W KI + HA-SDC1-FLAG; assay: relative GAG core protein HA-SDC1 amount per cell number vs DMSO (fraction of DMSO); higher = more SDC1 (GAG core protein);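 note: HA-SDC1 level read out by In-Cell Western staining with an anti-HA antibody against the N-terminal tag, screening FDA-approved library drugs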
[3] = system: HeLa VPS33A KO + NLuc-VPS33A R498W; assay: relative mutant VPS33A R498W amount (NanoLuc luminescence) vs DMSO (fraction of DMSO); HeLa model of a glycosaminoglycan (GAG) storage disease; KI is knock-in and KO knock-out; SDC1 is syndecan 1; higher = higher mutant VPS33A level;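 note: screen of an FDA-approved drug library, NanoLuc luminescence read after lysing the treated cells, taken as a measure of mutant VPS33A protein stability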

SMILES | relative cell viability [1] | relative GAG core protein HA-SDC1 amount per cell number [2] | relative mutant VPS33A R498W amount [3]
Nc1ncn([C@H]2C[C@H](O)[C@@H](CO)O2)c(=O)n1 | 0.989 | inactive: 1.04 | 1.58
O=S(=O)(O)Oc1ccc(C(c2ccc(OS(=O)(=O)O)cc2)c2ccccn2)cc1 [Sodium Picosulfate] | 0.974 | inactive: 0.902 | 1.21
CC(C)(c1ccc(O)cc1)c1ccc(O)cc1 [Bisphenol A] | 0.977 | active: 0.458 | 0.702
Cc1c(F)cc(C(=O)NC2CC2)cc1-c1ccc(C(=O)NCC(C)(C)C)cn1 [Losmapimod] | 0.987 | inactive: 0.848 | 0.753
CC(C)c1nc(CN(C)C(=O)N[C@@H](CCN2CCOCC2)C(=O)N[C@H](CC[C@H](Cc2ccccc2)NC(=O)OCc2cncs2)Cc2ccccc2)cs1 [Cobicistat (GS-9350)] | 0.719 | inactive: 0.509 | 0.276
COc1cccc(-c2ccc(NC(=O)C3=C(C(=O)O)CCC3)c(F)c2)c1 [Vidofludimus] | 1.08 | inactive: 0.545 | 0.704
O=C(O)C[C@H](O)C[C@H](O)/C=C/c1c(C2CC2)nc2ccccc2c1-c1ccc(F)cc1 [Pitavastatin Calcium] | 1.01 | inactive: 0.684 | 0.73
O=P(O)(O)C(Cl)(Cl)P(=O)(O)O [Clodronate Disodium] | 1.07 | inactive: 1.53 | 0.937
O=[N+]([O-])c1cn2c(n1)OC[C@@H](OCc1ccc(OC(F)(F)F)cc1)C2 | 1.41 | inactive: 0.95 | 1.36
C=CC1=C(C(=O)O)N2C(=O)[C@@H](NC(=O)/C(=N\OCC(=O)O)c3csc(N)n3)[C@H]2SC1 [Cefixime] | 0.911 | inactive: 0.928 | 1.83
COc1cc(C(C)=O)ccc1OCCCN1CCC(c2noc3cc(F)ccc23)CC1 [Iloperidone] | 1.02 | inactive: 1.19 | 1.09
O=C(O)C1=CO[C@@H](O[C@@H]2O[C@H](CO)[C@@H](O)[C@H](O)[C@H]2O)[C@@H]2C(CO)=CC[C@H]12 [Geniposidic acid] | 1.04 | inactive: 0.868 | 1.53
O=C(O)c1cc(=O)c2c(OCC(O)COc3cccc4oc(C(=O)O)cc(=O)c34)cccc2o1 [Cromolyn sodium] | 1.05 | inactive: 0.816 | 1.39
O=C(O)CCNC(=O)c1ccccc1 [Betamipron] | 1.11 | inactive: 1.23 | 1.24
COc1cccc(OC)c1C(=O)OCc1cc(O)ccc1O[C@@H]1O[C@H](CO)[C@@H](O)[C@H](O)[C@H]1O [Curculigoside] | 0.96 | inactive: 0.82 | 1.12
Cn1cnc([N+](=O)[O-])c1Sc1ncnc2[nH]cnc12 [Azathioprine] | 1.06 | inactive: 0.807 | 6.23
CNC(=O)[C@H](Cc1ccccc1)NC(=O)[C@H](CC(C)C)[C@H](CSc1cccs1)C(=O)NO [Batimastat (BB-94)] | 1.29 | inactive: 1.36 | 1.02
CCN(CC)CC(=O)Nc1c(C)cccc1C [Lidocaine] | 1.06 | inactive: 1.3 | 1.11
COc1ccccc1OCC(O)CO (stereo not drawn) [Guaifensin] | 1.08 | inactive: 1.27 | 1.01
CCN[C@H]1CN(CCCOC)S(=O)(=O)c2sc(S(N)(=O)=O)cc21 [Brinzolamide] | 1.06 | inactive: 0.907 | 1.14
CCC(=O)OCC(=O)[C@@]1(OC(=O)CC)[C@@H](C)C[C@H]2[C@@H]3CCC4=CC(=O)C=C[C@]4(C)[C@@]3(Cl)[C@@H](O)C[C@@]21C [Beclomethasone dipropionate] | 1.19 | inactive: 0.501 | 0.497
CCCCCCCCCC(=O)N[C@@H](Cc1c[nH]c2ccccc12)C(=O)N[C@H](CC(N)=O)C(=O)N[C@@H](CC(=O)O)C(=O)N[C@@H]1C(=O)NCC(=O)N[C@@H](CCCN)C(=O)N[C@@H](CC(=O)O)C(=O)N[C@H](C)C(=O)N[C@@H](CC(=O)O)C(=O)NCC(=O)N[C@H](CO)C(=O)N[C@@H]([C@H](C)CC(=O)O)C(=O)N[C@@H](CC(=O)c2ccccc2N)C(=O)O[C@@H]1C [Daptomycin] | 1.41 | inactive: 0.99 | 1.28
C/C(=C\CO)CCC[C@H](C)CCC[C@H](C)CCCC(C)C [Phytol] | 1.01 | inactive: 0.814 | 1.29
COC(=O)C1=C(C#N)NC(C)=C(C(=O)OC(C)C)C1c1cccc([N+](=O)[O-])c1 (stereo not drawn) [Nilvadipine] | 1.09 | inactive: 0.605 | 0.034
CC(C)(Oc1ccc(C(=O)c2ccc(Cl)cc2)cc1)C(=O)O [Choline Fenofibrate] | 1.12 | inactive: 0.962 | 0.82
CN(C)c1ccc(O)c2c1C[C@H]1C[C@H]3[C@H](N(C)C)C(=O)C(C(N)=O)=C(O)[C@@]3(O)C(=O)C1=C2O [Minocycline HCl] | 0.611 | inactive: 1.02 | 0.228

SMILES | relative cell viability [1] | relative GAG core protein HA-SDC1 amount per cell number [2] | relative mutant VPS33A R498W amount [3]
CCCCCCCCCCCCOS(=O)(=O)[O-].[Na+] [Sodium dodecyl sulfate] | 1.04 | inactive: 1.03 | 1.01
CC[C@H](C)[C@H](N)C(=O)O [(2S,3S)-2-Amino-3-methylpentanoic acid] | 0.946 | inactive: 0.911 | 1.67
CCCCC1C(=O)N(c2ccccc2)N(c2ccccc2)C1=O [Phenylbutazone] | 0.993 | inactive: 0.952 | 1.59
CCOC(=O)CCC(=O)O[C@H]1[C@H](O[C@@H]2[C@@H](C)[C@H](O[C@H]3C[C@@](C)(OC)[C@@H](O)[C@H](C)O3)[C@@H](C)C(=O)O[C@H](CC)[C@@](C)(O)[C@H](O)[C@@H](C)C(=O)[C@H](C)C[C@@]2(C)O)O[C@H](C)C[C@@H]1N(C)C [Erythromycin Ethylsuccinate] | 1.04 | inactive: 0.72 | 1.13
CCCCC1OC(=O)c2ccccc21 (stereo not drawn) [3-n-Butylphathlide] | 0.909 | inactive: 0.63 | 0.677
CCOC(CN1CCN(CC(C)C(=O)c2ccccc2)CC1)c1ccccc1 (stereo not drawn) [Eprazinone 2HCl] | 0.849 | inactive: 0.548 | 0.469
CCC(CC)[C@H](NC(C)=O)[C@@H]1[C@H](O)[C@@H](C(=O)O)C[C@H]1NC(=N)N [Peramivir] | 0.734 | inactive: 0.894 | 0.345
C[C@]12C=CC(=O)C=C1CC[C@@H]1[C@@H]2[C@@H](O)C[C@@]2(C)[C@H]1CC[C@]2(O)C(=O)CO [Prednisolone] | 1.03 | inactive: 1.01 | 0.92
N[C@@H]1CONC1=O [D-Cycloserine] | 0.944 | inactive: 0.955 | 1.19
Nc1ncnc2c1ncn2[C@@H]1O[C@H](COP(=O)(O)OP(=O)(O)OP(=O)(O)O)[C@@H](O)[C@H]1O [ATP disodium salt] | 1.1 | inactive: 0.924 | 0.983
CC(C)=CCC/C(C)=C/CC/C(C)=C/CSc1ccccc1C(=O)O [Salirasib] | 0.917 | active: 0.479 | 0.784
CC(C)n1c(/C=C/C(O)CC(O)CC(=O)O)c(-c2ccc(F)cc2)c2ccccc21 (stereo not drawn) [Fluvastatin] | 0.73 | inactive: 0.695 | 3.19
CCOC(=O)[C@H](CCc1ccccc1)N[C@H]1CS[C@H](c2cccs2)CN(CC(=O)O)C1=O [Temocapril HCl] | 0.957 | inactive: 0.89 | 1.49
O=C(O)c1cn(C2CC2)c2cc(N3CCNCC3)c(F)cc2c1=O [Ciprofloxacin (hydrochloride)] | 0.961 | inactive: 0.766 | 1.08
O=C(CCCCCCNC(=O)c1cnc(N(c2ccccc2)c2ccccc2)nc1)NO [Rocilinostat (ACY-1215)] | 0.926 | inactive: 0.765 | 4.45
CCCCC[C@H](O)/C=C/[C@@H]1[C@@H](C/C=C\CCCC(=O)O)[C@@H](O)C[C@H]1O [Prostaglandin F2α] | 1.02 | inactive: 1.21 | 1.57
COc1ccc([C@@H]2CC(=O)c3c(O)cc(O[C@@H]4O[C@H](CO[C@@H]5O[C@@H](C)[C@H](O)[C@@H](O)[C@H]5O)[C@@H](O)[C@H](O)[C@H]4O)cc3O2)cc1O [Hesperidin] | 1 | inactive: 1.03 | 1.39
CCCNC(C)C(=O)Nc1ccccc1C (stereo not drawn) [Prilocaine hydrochloride] | 1.12 | inactive: 1.13 | 1.08
CCc1c2c(nc3ccc(OC(=O)N4CCC(N5CCCCC5)CC4)cc13)-c1cc3c(c(=O)n1C2)COC(=O)[C@]3(O)CC [Irinotecan hydrochloride] | 1.07 | inactive: 0.644 | 0.764
CC(=O)[C@@]1(O)CC[C@H]2[C@@H]3CCC4=CC(=O)CC[C@]4(C)[C@H]3CC[C@@]21C [17-Hydroxyprogesterone] | 1.11 | inactive: 1.03 | 1.33
O=C1[C@@H]2[C@H]3CC[C@H](C3)[C@@H]2C(=O)N1CCCCN1CCN(c2ncccn2)CC1 [Tandospirone] | 1.18 | inactive: 1.25 | 0.884
O=C(O)c1ccccc1C(=O)O [Phthalic acid] | 0.992 | inactive: 0.937 | 1.29
Oc1ccccc1O [Pyrocatechol] | 1.07 | inactive: 0.871 | 1.4
Nc1nc(O)c2ncn(CCC(CO)CO)c2n1 [Penciclovir] | 0.857 | inactive: 1.01 | 1.5
CO[C@@]1(NC(=O)Cc2cccs2)C(=O)N2C(C(=O)O)=C(COC(N)=O)CS[C@@H]21 [Cefoxitin (sodium salt)] | 1.04 | inactive: 0.833 | 1.51
